Reference: PMC4336329 (PLoS ONE, 2015)
Hit rate of the full screen: of about 310,000 compounds, about 2,200 (0.71%) showed an effect of 50% or more. Effects have a minus sign here. The list shows a part of the results.

These compounds were tested against human ether-à-go-go-related gene (hERG) potassium channel (human, UniProt Q12809) (assay: primary screen, population patch clamp on CHO cells stably expressing hERG).
Chain of human ether-à-go-go-related gene (hERG) potassium channel (Q12809 whole entry, looked up): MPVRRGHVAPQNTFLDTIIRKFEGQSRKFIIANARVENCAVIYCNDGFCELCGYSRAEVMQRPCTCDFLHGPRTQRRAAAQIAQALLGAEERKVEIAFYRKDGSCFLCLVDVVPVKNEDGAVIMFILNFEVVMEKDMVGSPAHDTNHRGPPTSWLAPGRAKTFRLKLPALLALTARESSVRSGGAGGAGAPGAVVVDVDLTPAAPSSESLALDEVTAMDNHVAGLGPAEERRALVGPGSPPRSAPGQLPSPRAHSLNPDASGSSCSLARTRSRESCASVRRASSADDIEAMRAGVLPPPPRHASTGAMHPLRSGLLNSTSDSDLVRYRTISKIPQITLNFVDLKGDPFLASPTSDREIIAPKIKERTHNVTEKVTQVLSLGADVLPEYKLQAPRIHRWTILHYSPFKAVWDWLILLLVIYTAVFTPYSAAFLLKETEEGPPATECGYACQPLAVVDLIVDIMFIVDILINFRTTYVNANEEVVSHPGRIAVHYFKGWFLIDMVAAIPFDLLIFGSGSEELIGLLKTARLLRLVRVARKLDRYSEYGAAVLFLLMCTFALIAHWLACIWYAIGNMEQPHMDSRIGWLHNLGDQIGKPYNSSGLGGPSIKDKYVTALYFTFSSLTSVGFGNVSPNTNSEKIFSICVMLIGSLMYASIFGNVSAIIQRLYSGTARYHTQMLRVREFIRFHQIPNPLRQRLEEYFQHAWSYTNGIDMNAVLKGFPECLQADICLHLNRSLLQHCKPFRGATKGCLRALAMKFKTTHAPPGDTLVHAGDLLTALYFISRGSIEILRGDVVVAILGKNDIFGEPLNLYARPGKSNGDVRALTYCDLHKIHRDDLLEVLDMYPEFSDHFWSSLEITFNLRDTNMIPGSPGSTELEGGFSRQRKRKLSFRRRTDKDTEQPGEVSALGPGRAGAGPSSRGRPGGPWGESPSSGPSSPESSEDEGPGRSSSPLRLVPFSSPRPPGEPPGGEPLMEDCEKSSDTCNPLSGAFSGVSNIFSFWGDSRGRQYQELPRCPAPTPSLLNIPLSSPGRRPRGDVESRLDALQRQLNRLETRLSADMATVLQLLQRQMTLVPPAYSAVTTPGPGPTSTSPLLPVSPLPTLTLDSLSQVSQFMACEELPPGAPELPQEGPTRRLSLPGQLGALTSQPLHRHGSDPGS

Compound	hERG current change (%, negative = inhibition) at 1uM
O=C(Cn1c(=O)oc2ccccc21)N(Cc1ccccc1)C1CCS(=O)(=O)C1 (stereo not drawn)	5.58%
O=C(O)c1ccc2c(c1)C(=O)N(c1cc([N+](=O)[O-])ccn1)C2=O	10.8%
CCCCNC(=O)c1nc2ncc(Br)cn2n1	-2.19%
CCN1CC2([N+](=O)[O-])C=CC(=O)C([N+](=O)[O-])(C1)C2CC(=O)c1ccccc1 (stereo not drawn)	11.6%
CCCN(C(=O)COC(=O)CC1CCCCC1)c1c(N)n(Cc2ccccc2)c(=O)[nH]c1=O	13.7%
S=C(NC1CC1)NC1CCCc2ccccc21 (stereo not drawn)	12.7%
CCCCn1c(SCC(=O)NCc2ccco2)nc2c(sc3ccccc32)c1=O	-4.7%
CCOC(=O)c1ccc(NC(=O)Nc2ccc3c(c2)OCCO3)cc1	8.05%
O=C(CS(=O)(=O)c1ccccc1)Nc1ccc(N2CCOCC2)cc1	11%
Cc1ccc(-n2nc(C(=O)O)nc2-c2ccccc2)cc1	-0.628%
Cc1ccc(SCCc2cc[n+](CC(=O)c3ccccc3)cc2)cc1	-46.5%
COc1cc(C2CC(=O)Oc3c(C(CCN4CCOCC4)c4ccc(N(C)C)cc4)c(OC)cc(OC)c32)cc(OC)c1OC (stereo not drawn)	9.04%
C/C=C(/C)C(=O)O[C@H]1[C@@H](O)c2c(ccc3ccc(=O)oc23)OC1(C)C	11.6%
CN(Cc1ccccc1)S(=O)(=O)c1ccc2c(c1)CCC(=O)N2	14.1%
O=C1CCC(/C=C/c2ccccc2)=NN1Cc1ccccc1	10.7%
COc1ccc(/C(N)=N/OC(=O)c2cccc([N+](=O)[O-])c2)cc1OC	-1.16%
CN(C)c1c(N)c(=O)oc2ccccc12	9.47%
CC(C)(C)C(=O)N1CCCC1C(=O)O (stereo not drawn)	9.12%
CCC(=O)Nc1ccc(Oc2ccc3c(c2)C(=O)N(c2ccc(O)cc2)C3=O)cc1	13.7%
CNC(=S)/N=C(/Nc1ccccc1)c1ccccc1	-2.09%
COc1ccccc1OCCCCn1c(C(C)O)nc2ccccc21 (stereo not drawn)	10.7%
CCOc1ccc(NC(=O)N2CCCC2C(=O)NCc2ccco2)cc1 (stereo not drawn)	12.8%

Compound	hERG current change (%, negative = inhibition) at 1uM
Cc1cc(OCC(O)CNC(C)c2ccccc2)ccc1C(C)C.Cl (stereo not drawn)	8.02%
COc1ccc([N+](=O)[O-])cc1NC(=O)C(C)OC(=O)CSC(C)C(=O)Nc1cc(C)on1 (stereo not drawn)	3.66%
COC(=O)C1CCN(C(=O)COC(=O)c2ccc(OC)c(S(=O)(=O)N3CCCc4ccccc43)c2)CC1	-4.43%
Cc1cc(=O)[nH]c(-n2ncc(C#N)c2N)n1	22.1%
CN(c1ccc(C(=O)N2CCN(Cc3ccc4c(c3)OCO4)CC2)cc1)S(=O)(=O)c1ccccc1	-15.1%
NC(=O)CC[C@@H]1NC(=O)[C@@H]2CCCN2C(=O)c2cc([N+](=O)[O-])cc(I)c2NCCCC[C@@H](C(=O)NC(CC(=O)O)C(N)=O)NC1=O (stereo partly drawn)	3.24%
Cc1ccc(NC(=S)NCCO)c(C)c1	4.58%
CNC(=S)N(Cc1ccc(Cl)cc1)Cc1cccs1	11.2%
CC(C)c1ccc(C(CC(=O)O)NC(=O)c2cccs2)cc1 (stereo not drawn)	16.2%
CCc1nnc(NS(=O)(=O)c2ccc(Nc3ccc4nonc4c3[N+](=O)[O-])cc2)s1	13.3%
O=C(NCc1ccco1)/C(=C\c1ccccc1)NC(=O)c1ccccc1	13.9%
Cc1c(C)c2c(OCC(=O)NCC(=O)NCC(=O)O)cc3c(c2oc1=O)CCC(C)(C)O3	11.9%
O=C(Cn1ccc([N+](=O)[O-])n1)NCc1ccccc1	12.2%
O=C(O)c1cccc2c1C(=O)N(C1CCCCC1)C2	-6.48%
Cc1ccc(C)c(SCC(=O)OCC(=O)Nc2ccc(S(=O)(=O)N3CCOCC3)cc2)c1	19.6%
O=C(CSCc1ccc(Cl)cc1)NCc1ccccn1	9.26%
COc1ccc(CCNC(=O)c2c(O)c3cccc4c3n(c2=O)CC4)cc1	2.5%
Cl.O=C(c1cccc(S(=O)(=O)NCc2ccccc2)c1)N1CCN(Cc2ccccc2)CC1	-0.767%
COCCN1C(=O)c2oc3ccccc3c(=O)c2C1c1cccc(O)c1 (stereo not drawn)	10.6%
CCOC(=O)c1ccc(COC(=O)c2ccc3c(c2)-c2ccccc2C3=O)cc1	10.1%
Nc1ncc([N+](=O)[O-])s1	11.3%
O=C(N/N=C/c1ccc(OC(=O)c2ccccc2Cl)cc1)c1ccccn1	5.52%

Compound	hERG current change (%, negative = inhibition) at 1uM
Cc1ccc(Cn2c(CN3CCOCC3)nc3c2c(=O)[nH]c(=O)n3C)cc1	-2.6%
Cc1cc(C)n(CC(C)NC(=O)c2cc(COc3c(F)cccc3F)on2)n1 (stereo not drawn)	4.74%
Cc1ccc(C)c(N2CCN(c3ncccc3[N+](=O)[O-])CC2)c1	1.38%
Cc1ccc(CNS(=O)(=O)c2ccc3c(c2)CCN3C(=O)CCCC(=O)O)cc1	4.17%
O=C1CCC(=O)N1c1ccc(-c2nc3ccccc3s2)cc1	13.6%
COc1cc(C2=NOC(C(=O)NCc3ccco3)C2)cc(OC)c1OC (stereo not drawn)	-2.53%
Cc1ccc(-c2cc3nc(-c4ccc(Br)cc4)cc(N)n3n2)cc1	4.38%
CCc1ccc(OCC(=O)Nc2ccc3c(c2)COC3=O)cc1	-6.5%
CCN(CC)C(=O)Cn1cc(SCC(=O)Nc2cc(C)on2)c2ccccc21	3.18%
CC1CCC2(CC1)NC(=O)N(CC(=O)Nc1cccc(S(=O)(=O)N3CCOCC3)c1)C2=O (stereo not drawn)	8.22%
CCc1cc2ccc(C)cc2nc1SCC(=O)Nc1cc(C)on1	11.7%
CN(C)/C=C/C(=O)c1ccc(Oc2ncccn2)cc1	24.7%
COC(=O)c1cccnc1-n1c(=O)c2cccnc2n(CC(=O)Nc2ccc(Br)cc2)c1=O	5.27%
COc1ccc(Cl)cc1NC(=O)c1ccccc1C	14.2%
COc1ccc(NC(=O)CSc2ccc3nnc(-c4ccccn4)n3n2)cc1	7.57%
O=C(NC1CC2CCCC(C1)N2Cc1ccccc1)c1cccc(F)c1 (stereo not drawn)	-29.8%
COc1cc2c(cc1NC(=O)CSc1nnc(Cc3cccs3)n1Cc1ccco1)oc1ccccc12	3.35%
CNc1ncc(-c2nnnn2-c2ccccc2)c(-c2ccccc2)n1	8.07%
COc1ccc(N(CC(=O)N2c3ccccc3CC2C)S(=O)(=O)c2c(C)noc2C)cc1 (stereo not drawn)	9.71%
CCN(CC)C(=S)Nc1ccc2nc3n(c(=O)c2c1)CCCCC3	0.573%
COc1ccc(-c2c(C)nn3c(-c4ccccc4)cc(C)nc23)cc1	-8.9%
CC(C)(C)c1ccc(OCC(=O)N2CCCCCC2)c(Br)c1	8.61%

Compound	hERG current change (%, negative = inhibition) at 1uM
CC1CCN(C(=O)Cn2c(=O)oc3ccccc32)CC1	7.96%
NC(=O)[C@@H]1CCOc2c(F)cc([N+](=O)[O-])cc2C(=O)N[C@@H](CO)C(=O)NCC(=O)N1	11.7%
COc1ccc(OCC(=O)Nc2nccs2)cc1	1.78%
CN1CCN(C(=O)CCN2C(=O)S/C(=C/c3ccc(Cl)cc3)C2=O)CC1	-1.76%
O=C1N/C(=N\N=C\c2cccs2)SC1Cc1cccc(Cl)c1Cl (stereo not drawn)	10.7%
CCCN1CCN(CCCNC(=O)C2CCN(c3nnc(-n4c(C)ccc4C)s3)CC2)CC1	13.1%
COC(=O)N(C)c1ccccc1C(=O)N1CCOCC1	10.1%
O=c1nccc(NCc2ccco2)[nH]1	-6.89%
C/C(=N/NC(=O)c1cn(-c2cccc(C)n2)cn1)c1ccc(C)cc1	8.18%
O=C(NNC(=S)NC(=O)c1ccccc1[N+](=O)[O-])c1ccccc1Cl	12.2%
C=CCN(c1nc(C)cc(OC)n1)S(=O)(=O)c1ccc(C)cc1	20.2%
Nc1[nH]n(-c2ccccc2)c(=O)c1N=Nc1ccc2ncsc2c1	8.47%
COC(=O)c1ccc(/C=N/Nc2nc(-c3ccc(C)cc3)cs2)cc1	5.67%
CC12CN3CC(C)(CN(C1)C3c1cccs1)C2O (stereo not drawn)	-2.29%
Oc1ccc(-n2nnnc2SCc2ccccc2Br)cc1	16.8%
CN(C)c1ccc(/C=N/N=C2/SC(CC(=O)O)C(=O)N2c2ccc(O)cc2)cc1 (stereo not drawn)	12.3%
C=CCOC(=O)C1=C[C@@H](c2ccc3c(c2)OCO3)C[C@@H](OCCCCO)O1	3.68%
C=C(C)c1cccc(C(C)(C)NC(=O)N2CCCC2)c1	8.97%
c1coc(Cn2c(SCc3nc4ccccc4[nH]3)nnc2-c2cnccn2)c1	-21.2%
Cc1cc(S(=O)(=O)Nc2ccc(C(=O)NCc3ccncc3)cc2)ccc1F	14.8%
O=C(O)C1C2CC3CC(C2)CC1(n1ncc(N2CCC4(CC2)OCCO4)c(Cl)c1=O)C3 (stereo not drawn)	10.7%
